Measured values from a collection of fitness landscapes (doi:10.1038/s41467-024-54723-y).
In all, about 18,000 sequences were measured (“TetR repression strength (sort-seq, GFP reporter)”: median about 0.23, highest 2% from about 0.68 on). Some of the results follow.

These sequences were tested against TetR (class B, Tn10) (UniProt P04483) (assay: TetR repression strength (sort-seq, GFP reporter) (relative to tetO2 = 1); higher = stronger repression). Conditions: E. coli.
Chain of UniProt P04483 (P04483 whole entry): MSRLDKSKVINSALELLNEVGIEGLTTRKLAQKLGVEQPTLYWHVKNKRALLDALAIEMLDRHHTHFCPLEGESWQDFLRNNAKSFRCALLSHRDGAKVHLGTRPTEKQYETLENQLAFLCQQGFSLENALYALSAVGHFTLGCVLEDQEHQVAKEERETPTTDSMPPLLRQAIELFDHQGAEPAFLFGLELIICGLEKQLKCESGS
Method in brief: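 Three independent transformations of E. coli SIG10-MAX were made with a low-copy plasmid library randomizing eight operator positions between a constitutive promoter and sfGFP, with constitutive TetR. Following 5 h at 37 °C in LB plus 50 µg/mL chloramphenicol, 10^6 cells went through FACS into 13 fluorescence bins, and each bin was sequenced by Illumina. Repression strength was defined as the top bin index plus one minus the read-weighted mean bin, divided by the unaltered operator's value. Averages included only members reaching ≥30 reads in all replicates with a CV ≤0.5.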
For TCCCCCGGAGTGCGTGAGA, the TetR repression strength was 0.145. Sequence TCCCAGGAAGTATCGGAGA has a TetR repression strength of 0.147. TCCCAGTCAGTTCCAGAGA gave a TetR repression strength of 0.133. Sequence TCCCCTCCAGTCCTAGAGA has a TetR repression strength of 0.386. With TCCCCATAAGTACCGGAGA the TetR repression strength was 0.034. With TCCCAGGCAGTTACCGAGA the TetR repression strength was 0.14. Sequence TCCCTGCAAGTTCGAGAGA has a TetR repression strength of 0.282. TCCCATTGAGTGGTAGAGA was tested, and the TetR repression strength was 0.466. Sequence TCCCAACGAGTCGACGAGA has a TetR repression strength of 0.696. TCCCTTCGAGTCGATGAGA was tested, and the TetR repression strength was 0.299. Sequence TCCCGCATAGTCGAGGAGA has a TetR repression strength of 0.274. Sequence TCCCAGTGAGTGGGCGAGA has a TetR repression strength of 0.145. Work on TCCCCCGGAGTGAAAGAGA yielded a TetR repression strength of 0.501. Sequence TCCCGAGTAGTTGGGGAGA has a TetR repression strength of 0.166. With TCCCGCCGAGTGCTCGAGA the TetR repression strength was 0.0648. Work on TCCCACATAGTGACCGAGA yielded a TetR repression strength of 0.223. TCCCCGGGAGTTCGCGAGA was tested, and the TetR repression strength was 0.184. TCCCCGATAGTCTGAGAGA showed a TetR repression strength of 0.187. TCCCTGACAGTCGTTGAGA gave a TetR repression strength of 0.115. TCCCCTTAAGTGTCGGAGA was tested, and the TetR repression strength was 0.126. In the case of TCCCGTTTAGTGATAGAGA, the TetR repression strength is reported as 0.523. TCCCCCTTAGTGGACGAGA showed a TetR repression strength of 0.353. For TCCCAACAAGTCAGGGAGA, the TetR repression strength was 0.351. TCCCTGTGAGTTGTCGAGA was tested, and the TetR repression strength was 0.258. TCCCTCGCAGTCACGGAGA was tested, and the TetR repression strength was 0.0292. Work on TCCCCGTAAGTGGATGAGA yielded a TetR repression strength of 0.0225. TCCCATCAAGTTCGGGAGA gave a TetR repression strength of 0.282. TCCCATAAAGTGGCGGAGA gave a TetR repression strength of 0.133. Work on TCCCTTATAGTGGTCGAGA yielded a TetR repression strength of 0.22. Work on TCCCTGAAAGTCTCGGAGA yielded a TetR repression strength of 0.0239. TCCCTGGTAGTTCTCGAGA gave a TetR repression strength of 0.315. In the case of TCCCTCGCAGTACGTGAGA, the TetR repression strength is reported as 0.126. In the case of TCCCTTGTAGTTGACGAGA, the TetR repression strength is reported as 0.0842. TCCCTACCAGTTGCTGAGA was tested, and the TetR repression strength was 0.309. TCCCTGTTAGTTCTGGAGA was tested, and the TetR repression strength was 0.166. TCCCTGGAAGTTTTGGAGA gave a TetR repression strength of 0.139. Work on TCCCCATAAGTCCTTGAGA yielded a TetR repression strength of 0.415. Sequence TCCCGCGGAGTCCAAGAGA has a TetR repression strength of 0.101. Sequence TCCCAGGTAGTGGACGAGA has a TetR repression strength of 0.46. In the case of TCCCTGAGAGTCGGTGAGA, the TetR repression strength is reported as 0.3. Sequence TCCCGTTGAGTAGCAGAGA has a TetR repression strength of 0.367. Work on TCCCACTTAGTGATAGAGA yielded a TetR repression strength of 0.569. Sequence TCCCTTAAAGTAACTGAGA has a TetR repression strength of 0.217. TCCCTTGGAGTGGGAGAGA was tested, and the TetR repression strength was 0.158. Work on TCCCCTGAAGTGGCAGAGA yielded a TetR repression strength of 0.204. TCCCATAAAGTTGCGGAGA gave a TetR repression strength of 0.142. With TCCCTACCAGTTCCTGAGA the TetR repression strength was 0.29. In the case of TCCCTGGGAGTGGAGGAGA, the TetR repression strength is reported as 0.227. TCCCGATCAGTGGTGGAGA showed a TetR repression strength of 0.426. TCCCGGTCAGTCTCCGAGA was tested, and the TetR repression strength was 0.281. TCCCGGCGAGTGATGGAGA was tested, and the TetR repression strength was 0.29. Sequence TCCCAGCGAGTGACGGAGA has a TetR repression strength of 0.207. In the case of TCCCCGACAGTTAGAGAGA, the TetR repression strength is reported as 0.458. With TCCCTTGAAGTGGGTGAGA the TetR repression strength was 0.165. Sequence TCCCTGTGAGTCGCGGAGA has a TetR repression strength of 0.327. Sequence TCCCGCACAGTAGGTGAGA has a TetR repression strength of 0.298. Work on TCCCGGCGAGTGGGTGAGA yielded a TetR repression strength of 0.23. Sequence TCCCTGTAAGTGATCGAGA has a TetR repression strength of 0.379. Sequence TCCCAAGCAGTGTGCGAGA has a TetR repression strength of 0.113. Work on TCCCCAGTAGTGGTGGAGA yielded a TetR repression strength of 0.198. TCCCGAACAGTTGTGGAGA was tested, and the TetR repression strength was 0.231. For TCCCTCACAGTTTAGGAGA, the TetR repression strength was 0.271. With TCCCGTGAAGTATCGGAGA the TetR repression strength was 0.0691. In the case of TCCCGCGTAGTTAAAGAGA, the TetR repression strength is reported as 0.327. TCCCAAACAGTATGTGAGA gave a TetR repression strength of 0.164. TCCCTAGGAGTGGGTGAGA gave a TetR repression strength of 0.195. TCCCTAGGAGTGGAGGAGA showed a TetR repression strength of 0.144. TCCCCCCGAGTGAGGGAGA gave a TetR repression strength of 0.13. Sequence TCCCAAGTAGTGATAGAGA has a TetR repression strength of 0.434. TCCCATATAGTGAACGAGA was tested, and the TetR repression strength was 0.332. For TCCCAAGCAGTGAATGAGA, the TetR repression strength was 0.218. TCCCGAGCAGTCAGAGAGA showed a TetR repression strength of 0.36. TCCCGGGGAGTACGGGAGA was tested, and the TetR repression strength was 0.233. TCCCGGTGAGTCGATGAGA was tested, and the TetR repression strength was 0.185. With TCCCAATAAGTGTCAGAGA the TetR repression strength was 0.263. In the case of TCCCAGAAAGTCTGCGAGA, the TetR repression strength is reported as 0.141. For TCCCATCAAGTTGGGGAGA, the TetR repression strength was 0.188. For TCCCTTTAAGTATCGGAGA, the TetR repression strength was 0.247. TCCCTGAGAGTCGATGAGA gave a TetR repression strength of 0.237. In the case of TCCCGGGGAGTAAGGGAGA, the TetR repression strength is reported as 0.315. For TCCCTGAGAGTTTTCGAGA, the TetR repression strength was 0.204. For TCCCTGAGAGTGATGGAGA, the TetR repression strength was 0.255. With TCCCGTGAAGTGGACGAGA the TetR repression strength was 0.26. With TCCCAACGAGTATAGGAGA the TetR repression strength was 0.0801. In the case of TCCCGGGTAGTTTGAGAGA, the TetR repression strength is reported as 0.111. For TCCCGTTAAGTATGGGAGA, the TetR repression strength was 0.312. For TCCCCGGGAGTCGAGGAGA, the TetR repression strength was 0.526. In the case of TCCCGTGTAGTAGCTGAGA, the TetR repression strength is reported as 0.463. TCCCTTCTAGTTAGTGAGA was tested, and the TetR repression strength was 0.295. With TCCCATTTAGTCTGTGAGA the TetR repression strength was 0.192. With TCCCCCGCAGTGCGGGAGA the TetR repression strength was 0.246. For TCCCTGTTAGTCGATGAGA, the TetR repression strength was 0.214. For TCCCGTTGAGTGATGGAGA, the TetR repression strength was 0.122. TCCCGCCCAGTGAAGGAGA gave a TetR repression strength of 0.169. Sequence TCCCCTCTAGTCGAGGAGA has a TetR repression strength of 0.417. TCCCAAACAGTGCCCGAGA gave a TetR repression strength of 0.339. TCCCGTGCAGTACGGGAGA was tested, and the TetR repression strength was 0.178. With TCCCTTGTAGTCAAGGAGA the TetR repression strength was 0.25. TCCCCAGTAGTGCCAGAGA gave a TetR repression strength of 0.214. In the case of TCCCGGAGAGTCATGGAGA, the TetR repression strength is reported as 0.232. For TCCCATCAAGTCGGTGAGA, the TetR repression strength was 0.0862. Work on TCCCCGCTAGTCATAGAGA yielded a TetR repression strength of 0.104.
